# Sequences with one replicate were seen in a single cluster, so their values are uncertain.
# Tested on: ATP
# Assay: switch fluorescence ratio, 500 uM ATP over buffer (Cy3 cluster intensity, sum of 5 cycles each) (fold (ratio)); higher = stronger signal-on switching upon ATP binding; sequences stand for … in TCGTCGGCAGCGTCAGATGTGTATAAGAGACAGTTTTTTTTTTTTTTTTTTTTTTTTT…TC
# Conditions: aptamer strand: ATP DNA aptamer (quencher-CACCTGGGGGAGTATTGCGGAGGAAGG + anchor), 100 nM annealed; ATP concentration: 500 uM; one replicate
# In short: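 For every switch-domain sequence, the fluorescence ratio is the mean of per-cluster values, each being summed target-cycle Cy3 intensity over summed buffer-cycle Cy3 intensity. Clusters outside 100-1000 RFU were excluded. On a modified Illumina MiSeq flow-cell, the Cy3-labelled switching-strand clusters were annealed to 100 nM quencher-labelled ATP aptamer, imaged in selection buffer and then after 15 min with 500 uM ATP at 22 °C. Five such cycles were run, with NaOH stripping and re-annealing between them.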
# 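Further: ATP exposure 15 min at 22 °C before imaging.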
row,Sequence,switch fluorescence ratio
1,CCAGCGGATT,1.01
2,CCAGCTCGCG,0.965
3,CCAGCTGGTT,1
4,CCAGGCCAGA,1.03
5,CCAGGGAGCG,1.02
6,CCAGGGATAA,1.07
7,CCAGGGGCAT,1.5
8,CCAGGGGTTC,1.27
9,CCAGGGTGTC,1.57
10,CCAGGTAGGC,1.32
11,CCAGGTAGTG,1.25
12,CCAGGTATAT,1.08
13,CCAGGTGCAG,1.38
14,CCAGGTTGGT,1.28
15,CCAGTACTGC,1.07
16,CCAGTACTGT,0.991
17,CCAGTAGC,1.09
18,CCAGTATGG,1.01
19,CCAGTCCATT,0.964
20,CCAGTCTACA,1.06
21,CCAGTCTGCA,1.17
22,CCAGTCTTTA,1
23,CCAGTGTATG,1.04
24,CCAGTTAAGT,0.977
25,CCAGTTCATC,1.02
26,CCATAACAGT,0.988

row,Sequence,switch fluorescence ratio
1,CCATAATGAT,0.994
2,CCATACTCAG,1.16
3,CCATAGAAGG,2.56
4,CCATAGCCGG,1.09
5,CCATAGCGGT,5.45
6,CCATAGGTGG,1.02
7,CCATATATAT,0.997
8,CCATATGAAG,0.986
9,CCATATGGGC,0.981
10,CCATATTACT,1.08
11,CCATCATATA,0.984
12,CCATCCCTTG,0.988
13,CCATCGAGCG,1
14,CCATCTTATT,0.946
15,CCATGAGCGC,0.929
16,CCATGCTTAG,1.03
17,CCATGGTGGC,1.16
18,CCATGTATCA,0.954
19,CCATGTGTCC,1.02
20,CCATGTTTCT,0.939
21,CCATTAAAGT,0.999
22,CCATTAGATT,0.98
23,CCATTCAGGC,0.946
24,CCATTCCGGG,1.12
25,CCATTGCTTC,1.18
26,CCATTGTAT,0.994

row,Sequence,switch fluorescence ratio
1,CCATTGTCTA,1.01
2,CCATTTAACG,0.962
3,CCATTTTTCT,0.96
4,CCCAACCCAG,1.14
5,CCCAACGGGT,1
6,CCCAAGATGT,1.75
7,CCCAAGTGGG,0.977
8,CCCAATGG,1.87
9,CCCACCGTCG,1.07
10,CCCACTTCCT,1.54
11,CCCAGAGTGT,4.39
12,CCCAGCCCCG,1.01
13,CCCAGCGATG,1.93
14,CCCAGGGCTA,1.49
15,CCCAGTATCG,0.975
16,CCCAGTGCCA,1.41
17,CCCAGTGGCT,1.09
18,CCCATTTCAG,1.02
19,CCCCACCGAG,1.06
20,CCCCACCTTT,1.03
21,CCCCAGTTTC,1.11
22,CCCCATCTTC,1.03
23,CCCCGAGGCA,2.59
24,CCCCGGCAGG,1.27
25,CCCCGGTAAG,1.55
26,CCCCGTGTTT,1.37

row,Sequence,switch fluorescence ratio
1,CCCCTGCGTT,1.25
2,CCCCTTCCTA,1.57
3,CCCCTTTTGT,1.01
4,CCCGAACCTG,1.07
5,CCCGAACGTA,1.29
6,CCCGAAGGGT,1.11
7,CCCGAAGT,1.08
8,CCCGATTTCA,1
9,CCCGCAGGAT,1.6
10,CCCGCATGGG,1.09
11,CCCGCGAGTG,2.08
12,CCCGCGCGAT,2.98
13,CCCGCGGCTA,1.27
14,CCCGGAAAGT,1.07
15,CCCGGAAGCA,1.96
16,CCCGGCATAA,3.79
17,CCCGGGCCAC,1.13
18,CCCGGGGGAT,1.07
19,CCCGGTAATG,1.22
20,CCCGGTCCTT,1.02
21,CCCGGTTGCG,0.969
22,CCCGGTTGTT,1.02
23,CCCGTCGTAA,1.44
24,CCCGTCTACG,1.06
25,CCCGTTCGCG,1.03
26,CCCGTTTAGG,0.988

row,Sequence,switch fluorescence ratio
1,CCCTAGCCTG,1
2,CCCTATAGGC,0.98
3,CCCTATGGTT,0.995
4,CCCTATTGTT,1.09
5,CCCTCGAAGC,1.2
6,CCCTGACAGT,0.995
7,CCCTGGTCAA,1.09
8,CCCTGTGGTC,1
9,CCCTTAAAC,1
10,CCCTTATGTC,0.999
11,CCCTTCGAAT,1.25
12,CCCTTGCTGA,0.977
13,CCCTTGTA,0.992
14,CCGAACATCT,1.17
15,CCGAAGGTTC,1.3
16,CCGAATCGTT,1.04
17,CCGAATGTTG,1.03
18,CCGACAAAAC,3.95
19,CCGACCGGGT,1.32
20,CCGACTTTTT,1.31
21,CCGAGACCTC,1.15
22,CCGAGGGTAG,1.25
23,CCGAGGGTCG,1.01
24,CCGAGGTGT,1.48
25,CCGAGTTTAT,1.34
26,CCGATAAGTT,1.04

row,Sequence,switch fluorescence ratio
1,CCGATACTGG,1.2
2,CCGATAGAGC,1.06
3,CCGATCATCA,1.08
4,CCGATGCCGT,1.01
5,CCGATTGTAT,1.26
6,CCGCACGGGT,1.33
7,CCGCATGAGT,3.7
8,CCGCATGTTT,2.52
9,CCGCCAGGGT,1.93
10,CCGCCCCGGG,3.56
11,CCGCCGGAGA,1.6
12,CCGCGCACGA,2.95
13,CCGCGCCATT,2.35
14,CCGCGCCGGC,1.12
15,CCGCGCCTTC,3.21
16,CCGCGGCGCT,1.26
17,CCGCGGTAGG,1.07
18,CCGCGGTTGT,1.15
19,CCGCGTTACA,4.87
20,CCGCGTTTTA,1.17
21,CCGCTAAGTA,1.78
22,CCGCTATTCA,3.43
23,CCGCTCACGG,1.11
